# PMC10726135
# This is one part of the list. At the low end of the ranking the order means little. The protein was read in a cell extract, so binding may be indirect.
# Molecular target: T1, HNF4alpha8 (COS-7 nuclear extract) (UniProt P41235-5)
# T1 sequence: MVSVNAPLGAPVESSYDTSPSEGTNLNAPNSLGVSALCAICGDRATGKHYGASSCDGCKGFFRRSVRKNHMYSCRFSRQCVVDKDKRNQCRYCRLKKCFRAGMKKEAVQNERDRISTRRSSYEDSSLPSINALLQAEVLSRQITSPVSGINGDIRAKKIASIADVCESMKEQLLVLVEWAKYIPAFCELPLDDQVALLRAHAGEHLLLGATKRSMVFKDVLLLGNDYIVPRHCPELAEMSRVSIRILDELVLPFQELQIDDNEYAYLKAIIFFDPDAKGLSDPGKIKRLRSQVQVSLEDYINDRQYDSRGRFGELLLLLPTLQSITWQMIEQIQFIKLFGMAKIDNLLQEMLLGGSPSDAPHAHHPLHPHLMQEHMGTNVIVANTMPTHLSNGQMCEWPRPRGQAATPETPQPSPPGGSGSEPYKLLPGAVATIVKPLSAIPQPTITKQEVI
# Test: protein-binding microarray
# Conditions: COS-7 nuclear extract on double-stranded Agilent 4x180k PBM; binding buffer, salt, pH and temperature not given; high values mean tight binding; double strand, one strand shown; sequences stand for … in …GCCTAGGGAGATTAGAGTATCGGTCGA
row,Sequence,binding signal (log2 normalized intensity)
1,AGTGAGACAGACATGCGACATGAGGAGCCT,-1.23
2,CTGGATCCGTTAACAGCGGCATTCCTGTCA,-1.14
3,TTCCCTGAGTTTCCATTAACTGAACCTAGA,1.69
4,GTCTTAGGATCTGTGTTATGCTTGCAGGTG,1.1
5,TACAAACAGCCCTGACATTCTTGAGCTGCT,-1.24
6,TGTAGACATTGGAATGCGGGCTCCACCACT,-1.23
7,CCATATCACATTTTAAGGTCTGGCATTCTT,1.1
8,GTCACCCTCCCCGCCACCCCCCAGAGGGCC,6.22
9,TGAGCTTGAGTCCATCCCATCTTCCAGAAA,0.159
10,TCCCCCATGAAATTGAGATAAACATGAAAC,2.15
11,ACAGTAGGGAAAGTGGGGGGAAAGAATAAC,-1.32
12,TTCTAGAACCAGGAATCCTAGGGAAGAAAC,-1.46
13,GGAAGGCAACCACAGCCTCTGCATTTGCTC,-1.34
14,TTAAATAAGTCCTAAGCCTTATTATCTGCT,-1.22
15,CTCTTCCAAGTGTTCTTTACTTCCTTTTGT,1.25
16,TTTATTTACTTATGTTGTCCGGACACCAAC,1.38
17,TAAAAAATGCAAGTTTATCGAGCTTGATTT,-1.16
18,GTGCACTTCTCTTTGAGTCCCAATCCCCCA,4.6
19,TGGAGGAGGGCGAGGCCGAGCCTCAGCCGG,-1.39
20,GCACATGAATGATCAAAGGTTGGTTTTTGG,3.51
21,TCCTCCCATTCCAGCTCTTTACTCAGGTCA,1.62
22,CAGCCCCTTATCAGGAGAGGAGGCCCACAC,0.00602
23,CGGACTTTGTCCTTTGATTTTTTAAAGTAA,5.37
24,GATCAGTGTTGAGAATCCCTCCCCTGTGCA,3.72

row,Sequence,binding signal (log2 normalized intensity)
1,GGCTAGCATTCCTGCACACCTGCCTTTGAT,-1.22
2,CTTTTTGGGACTGATAACTTAGGCCCATAT,-1.28
3,TTCAACAGAACTGTTTGAGGGTAAAGATCT,0.813
4,CTGCTTCTTGGGTCAAAGTCTCTGGTACAA,3.25
5,TAGCTTATCATCTGATCCTTGTACCTGCGA,2.98
6,TCCTATTTCAACATCCTCTCAGGTCAAAGT,4.61
7,GTAAATTATCTTGATGGTTAAAGTCCAATC,5.58
8,CCTTATCTGGCCGCCTAATCCCCTGGCCTT,1.71
9,TCTAGCTACAGGAGAACAAAGTTCACCTTT,5.36
10,GAGGCTCAGACCTGACCTTTGGATTCCCAG,7.11
11,AGGACCTTGGGAAAGGAGAAGCTGGAGATA,-1.21
12,CACCTGTGGGTAATTAACTCCCCCTGCCCC,4.79
13,ACAGCAGCTGACAGATGGTGACCAGACTAC,-1.38
14,AGAGTTCATAATTTTGGACTTTGTGCAAAT,5.92
15,GCGCGGCCTCCCCAGAGGCTGGTCAGAATT,0.323
16,CCTTGATGTGTATTTGTAGCTTCAAACCAG,1.52
17,ACACCAACCTGTTCCAAAGTCCACCGTGGT,5.71
18,CCCCCGGCTCTACGCAAGTGGTACCTCCCG,2.76
19,ATAGGCAGAAGGGACTAGCCTTATCTCAGA,-1.31
20,TTTAACCAGAGTCTACAGGTCAGACCTGTT,2.15
21,CCTTTCTTTGTCTTTGCAATGTTGTCTTTT,2.44
22,GATAGATTTTGCATTGCTCACATAGCTGGG,-1.01
23,TAACATGTATCAACATGTTTATCCTTCAAC,0.691
24,CTGTTTCTTTGTGTGTCAACAGAGTGCTTA,1.48

row,Sequence,binding signal (log2 normalized intensity)
1,TTAGATTCCATGCAGCAGCATCCAGCCCCA,3.38
2,ATTGTCCAAGGGCTGTAGCAACCAAGTACC,-1.27
3,TACAGTGATGTTTGTCAAATGCTTCCAAGA,-1.13
4,CCTCCCTGCCTTAGTCCCAGTATGGTCTCA,0.618
5,ATTATCTACAGAGATAACAGGCCACAACTT,-1.38
6,CCTCGTGGTGCTGATCCCAGCCCCACGGCT,-0.759
7,GGCTGAACATGACTGGCATTCCCCTATGTC,0.829
8,TGAGATGAAGAGGCCAGGGGCACTCTCTGT,-1.3
9,TCAAGGCTGCCTGGCAGGGTGGGGTGGGGG,-1.24
10,ATTCATCCTCCAAAACCCAGTTCATAGGTC,4.22
11,AAAATTAAAGCGGACGGGCTGCGGAGGCGA,-1.32
12,CATACTGAAAAAGGGTTGTGCAAACTTCAG,0.304
13,CCACACAGCACGTAATAGTTCATGAAATGG,0.614
14,TGGGGAAACTGTTATCTCTCAACTCAGTGA,-1.28
15,GGACCGCCAAGGAAGCGATGGGCTGGCCCT,-1.37
16,AAGAAAGTTCAGCCCTTAGGACCAGGGGGG,-1.24
17,TTGGAAGCCACATTAAGTGACTTAATTATC,-1.33
18,AATGACACTAGCAGAAGAGACAGTCAATTA,-1.29
19,GCCACCATGCTCGGCTGCCTCTCCAAACAA,-1.34
20,GCATATGCCAACAGGTGCTCTTTATCAGCA,-1.23
21,CAGCGGTGCCTCAACCGAGCGTCCAAGCTC,-1.29
22,GCCGCTGACAAGCAGCCTCAGTGGCTCACA,-1.19
23,CGCTAGCTTTCTGGTCTTTGTTCTTTACTT,2.2
24,TCCAGGCTTGTCCTTTTGACCACAGTTATC,3.01

row,Sequence,binding signal (log2 normalized intensity)
1,ACTATTTGATGAGTCTTAGAGTCCAGACAC,2.06
2,TGGGCATCTGCAGGGCAGCAGACTCAGAAA,-1.31
3,TGAGTGAGTAGGTTCTCAGCTGACATTGGT,0.632
4,AATGTGACCCCTTTCATGAATAAATGACAT,2.68
5,AATGACTAAGGCAGGGAAGGAGAGTGACCT,3.75
6,TATTCATGTCCCTACCACATACAGAATCCT,0.521
7,AGAGAGGGACTAGAACTCAGTGTGAACTCA,1.51
8,CATGTTGGCATTCCAGGATGAAGGAAGAGG,-1.31
9,AGTGGTTTAAAAACTTATCTTGTGACCTTT,7.47
10,GTAGGGCAGCAGCCGGCCTCTTAACAGATG,-1.3
11,GCATCCCAGTAGAAAAAAAAATGGGCAAAG,-1.32
12,GAGTACACTCAGCTGTGTCTACCCTTTTGC,1.37
13,AGACAGCATAGGAAGTGGGGAAGAAGTGTT,-1.3
14,AGGAATTTGGCTCTAGAGGAGTCCCCTTAA,0.669
15,GGGAAGGCTAGCATTCCTGCACACCTGCCT,-1.33
16,GCAGGGAAGGAGAGTGACCTCTGCTTGAAG,2.67
17,TACAGCAGGGTAGAAAAGAGTTAAAAAAAA,-1.36
18,TCTTGTGGGCTGGGAGCTAATGAGCACATT,-1.29
19,AAGGCTGTCACACTGGCCTTTGCCCTCGCT,5.82
20,ATTAGTCTCTGCTGGCTTTCCACTCAGGCT,-1.2
21,ACAGGGGCCCAAGATAAAGGGACAGGGGTC,2.44
